Laboratory results from the supplement of paper PMC4967469.
By IC50 is meant the dose at which the fit gives 50% viability; where the fit passes the top or lowest dose, that dose stands as a limit. For AUC the same curve is integrated over the 256-fold range of doses and scaled to a fraction; the more sensitive the line, the further below 1. For part of these data: The top dose, if marked as inferred, comes from the curve model; the source does not state it. For part of these data: Drugs with an entry number were screened twice under separate entries, and the two screens often disagree.

Key:
Experiment in all cases: Viability of human cancer cell lines after 72 h of drug (GDSC screen)
AZD6244 = compound: Cn1cnc2c(F)c(Nc3ccc(Br)cc3Cl)c(C(=O)NOCCO)cc21 [AZD6244]; details: top dose 4 µM; screen: GDSC drug entry 1498; top dose inferred
Protocol: (§1)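 Human cancer cell lines in 384-well plates, medium with 10% serum, drug for 72 h over a 256-fold dose range (nine 2-fold or five 4-fold steps up to the top dose). Adherent lines were fixed and stained with the nucleic acid dye Syto60, suspension lines read with resazurin; signal relative to control wells, capped at 0 and 100%. One two-parameter sigmoid per drug and line, fitted in a mixed model over all curves with the slope shared within a line.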

EX-527 = compound: NC(=O)C1CCCc2c1[nH]c1ccc(Cl)cc21 [EX-527]; details: top dose 20 µM
Protocol: as §1

YM201636 = compound: Nc1ccc(C(=O)Nc2cccc(-c3nc(N4CCOCC4)c4oc5ncccc5c4n3)c2)cn1 [YM201636]; details: top dose 5.12 µM; top dose inferred
Protocol: as §1

TAK-715 = compound: CCc1nc(-c2cccc(C)c2)c(-c2ccnc(NC(=O)c3ccccc3)c2)s1 [TAK-715]; details: top dose inferred
Protocol: as §1

Cell Line | AUC (TAK-715) | IC50 (TAK-715) [µM] | further results
AsPC-1 (pancreas, adherent) | – | – | AUC (AZD6244): 0.714; IC50 (AZD6244): 1.57 µM; AUC (EX-527): 0.973; IC50 (EX-527): > 20 µM; AUC (YM201636): 0.859; IC50 (YM201636): > 5.12 µM
CADO-ES1 (Ewing sarcoma, suspension) | – | – | AUC (AZD6244): 0.981; IC50 (AZD6244): > 4 µM; AUC (EX-527): 0.988; IC50 (EX-527): > 20 µM; AUC (YM201636): 0.882; IC50 (YM201636): > 5.12 µM
CHP-134 (neuroblastoma, suspension) | – | – | AUC (EX-527): 0.98; IC50 (EX-527): > 20 µM; AUC (YM201636): 0.856; IC50 (YM201636): > 5.12 µM
COR-L303 (small cell lung carcinoma, suspension) | – | – | AUC (EX-527): 0.987; IC50 (EX-527): > 20 µM; AUC (YM201636): 0.876; IC50 (YM201636): 4.8 µM
COR-L311 (small cell lung carcinoma, suspension) | – | – | AUC (YM201636): 0.921; IC50 (YM201636): > 5.12 µM
COR-L321 (lung, suspension) | – | – | AUC (AZD6244): 0.966; IC50 (AZD6244): > 4 µM; AUC (EX-527): 0.987; IC50 (EX-527): > 20 µM; AUC (YM201636): 0.896; IC50 (YM201636): > 5.12 µM
D-423MG (glioma, adherent) | – | – | AUC (AZD6244): 0.904; IC50 (AZD6244): > 4 µM; AUC (EX-527): 0.981; IC50 (EX-527): > 20 µM; AUC (YM201636): 0.882; IC50 (YM201636): > 5.12 µM
HeLa (cervix, adherent) | – | – | AUC (EX-527): 0.924; IC50 (EX-527): > 20 µM; AUC (YM201636): 0.974; IC50 (YM201636): > 5.12 µM
SNU-175 (large intestine, suspension) | – | – | AUC (EX-527): 0.984; IC50 (EX-527): > 20 µM; AUC (YM201636): 0.751; IC50 (YM201636): 1.6 µM
TE-6 (oesophagus, adherent, top dose 20 µM) | 0.925 | > 20 | –
TE-8 (oesophagus, adherent, top dose 20 µM) | 0.918 | > 20 | –
TE-9 (oesophagus, adherent, top dose 20 µM) | 0.92 | > 20 | –
TE-10 (oesophagus, adherent, top dose 20 µM) | 0.945 | > 20 | –
TE-11 (oesophagus, adherent, top dose 20 µM) | 0.957 | > 20 | –
TE-12 (oesophagus, suspension, top dose 20 µM) | 0.793 | 11.4 | –
TE-15 (oesophagus, suspension, top dose 20 µM) | 0.772 | 8.72 | –
TE-441-T (rhabdomyosarcoma, adherent, top dose 20 µM) | 0.955 | > 20 | –
TGBC1TKB (biliary tract, adherent, top dose 20 µM) | 0.981 | > 20 | –
TGBC11TKB (stomach, adherent, top dose 20 µM) | 0.988 | > 20 | –
TGBC24TKB (biliary tract, adherent, top dose 20 µM) | 0.957 | > 20 | –
TGW (neuroblastoma, adherent, top dose 20 µM) | 0.928 | > 20 | –
THP-1 (acute myeloid leukaemia, suspension, top dose 20 µM) | 0.632 | 2.77 | –
TK10 (kidney, adherent, top dose 20 µM) | 0.925 | > 20 | –

Cell Line | AUC (TAK-715) | IC50 (TAK-715) [µM] | further results
TK (B-cell lymphoma, suspension, top dose 20 µM) | 0.912 | > 20 | –
TMK-1 (stomach, adherent, top dose 20 µM) | 0.982 | > 20 | –
TOV-21G (ovary, adherent, top dose 20 µM) | 0.966 | > 20 | –
TOV-112D (ovary, adherent, top dose 20 µM) | 0.759 | 7.03 | –
TT2609-C02 (thyroid, adherent, top dose 20 µM) | 0.968 | > 20 | –
TT (thyroid, adherent, top dose 20 µM) | 0.958 | > 20 | –
TUR (B-cell lymphoma, suspension, top dose 20 µM) | 0.911 | > 20 | –
TYK-nu (ovary, adherent, top dose 20 µM) | 0.985 | > 20 | –
U031 (kidney, adherent, top dose 20 µM) | 0.897 | > 20 | –
U251 (glioma, adherent, top dose 20 µM) | 0.91 | > 20 | –
U-2-OS (osteosarcoma, adherent, top dose 20 µM) | 0.951 | > 20 | –
U-87-MG (glioma, adherent, top dose 20 µM) | 0.978 | > 20 | –
U-118-MG (glioma, adherent, top dose 20 µM) | 0.983 | > 20 | –
U-698-M (B-cell leukaemia, suspension, top dose 20 µM) | 0.909 | > 20 | –
UACC-62 (melanoma, adherent, top dose 20 µM) | 0.985 | > 20 | –
UACC-257 (melanoma, adherent, top dose 20 µM) | 0.971 | > 20 | –
UACC-812 (breast, adherent, top dose 20 µM) | 0.976 | > 20 | –
UACC-893 (breast, adherent, top dose 20 µM) | 0.943 | > 20 | –
UM-UC-3 (bladder, adherent, top dose 20 µM) | 0.947 | > 20 | –
UMC-11 (lung carcinoid, adherent, top dose 20 µM) | 0.947 | > 20 | –
UWB1.289 (ovary, adherent, top dose 20 µM) | 0.948 | > 20 | –
VA-ES-BJ (soft tissue, adherent, top dose 20 µM) | 0.969 | > 20 | –
VAL (B-cell lymphoma, suspension, top dose 20 µM) | 0.81 | 10.5 | –

Cell Line | AUC (TAK-715) | IC50 (TAK-715) [µM] | further results
VCaP (prostate, adherent, top dose 20 µM) | 0.964 | > 20 | –
VM-CUB-1 (bladder, adherent, top dose 20 µM) | 0.988 | > 20 | –
VMRC-MELG (melanoma, adherent, top dose 20 µM) | 0.985 | > 20 | –
VMRC-RCW (kidney, adherent, top dose 20 µM) | 0.961 | > 20 | –
VMRC-RCZ (kidney, adherent, top dose 20 µM) | 0.91 | > 20 | –
WIL2-NS (lymphoid neoplasm, suspension, top dose 20 µM) | 0.656 | 3.08 | –
WM35 (melanoma, adherent, top dose 20 µM) | 0.972 | > 20 | –
WM278 (melanoma, adherent, top dose 20 µM) | 0.958 | > 20 | –
WM793B (melanoma, adherent, top dose 20 µM) | 0.921 | > 20 | –
WM1552C (melanoma, adherent, top dose 20 µM) | 0.952 | > 20 | –
WM-115 (melanoma, adherent, top dose 20 µM) | 0.965 | > 20 | –
WSU-DLCL2 (B-cell lymphoma, suspension, top dose 20 µM) | 0.893 | 16.7 | –
WSU-NHL (lymphoid neoplasm, suspension, top dose 20 µM) | 0.942 | > 20 | –
YAPC (pancreas, adherent, top dose 20 µM) | 0.977 | > 20 | –
YH-13 (glioma, adherent, top dose 20 µM) | 0.984 | > 20 | –
YKG-1 (glioma, adherent, top dose 20 µM) | 0.927 | > 20 | –
YMB-1-E (breast, adherent) | – | – | AUC (EX-527): 0.978; IC50 (EX-527): > 20 µM; AUC (YM201636): 0.86; IC50 (YM201636): > 5.12 µM
YMB-1-E (breast, adherent, top dose 20 µM) | 0.96 | > 20 | –
YT (lymphoid neoplasm, suspension, top dose 20 µM) | 0.872 | 14.2 | –
huH-1 (liver, adherent, top dose 20 µM) | 0.975 | > 20 | –
no-10 (glioma, adherent, top dose 20 µM) | 0.965 | > 20 | –
no-11 (glioma, adherent, top dose 20 µM) | 0.967 | > 20 | –
